Reference: a collection of fitness landscapes (doi:10.1126/science.1257360)
Some of the results follow.

B1: PhoQ; a variant is named by its letters at X, in order, P23837 (parent)
chain: MKKLLRLFFPLSLRVRFLLATAAVVLVLSLAYGMVALIGYSVSFDKTTFRLLRGESNLFYTLAKWENNKLHVELPENIDKQSPTMTLIYDENGQLLWAQRDVPWLMKMIQPDWLKSNGFHEIEADVNDTSLLLSGDHSIQQQLQEVREDDDDAEMTHSVAVNVYPATSRMPKLTIVVVDTIPVELKSSYMVWSWFIYVLSANLLLVIPLLWVAAWWSLRPIEALAKEVRELEEHNRELLNPATTRELTSLVRNLNRLLKSERERYDKYRTTLTDLTHSLKTPLXXLQXXLRSLRSEKMSVSDAEPVMLEQISRISQQIGYYLHRASMRGGTLLSRELHPVAPLLDNLTSALNKVYQRKGVNISLDISPEISFVGEQNDFVEVMGNVLDNACKYCLEFVEISARQTDEHLYIVVEDDGPGIPLSKREVIFDRGQRVDTLRPGQGVGLAVAREITEQYEGKIVAGESMLGGARMEVIFGRQHSAPKDE

Variants of: B1
Experiment: enrichment ratio after two sorts for PhoP signalling (ratio (wild type AVST 3.29)); higher = more functional
Settings: with PhoP (E. coli)

| Variant | enrichment ratio |
| --- | --- |
| VWEW | ≤ 0.25 |
| YHDP | ≤ 0.25 |
| FRLG | ≤ 0.25 |
| FMDA | ≤ 0.25 |
| KQNS | ≤ 0.25 |
| TRHK | ≤ 0.25 |
| MRSH | ≤ 0.25 |
| QIKR | ≤ 0.25 |
| IRTK | ≤ 0.25 |
| KHTG | ≤ 0.25 |
| LKKP | ≤ 0.25 |
| IPVW | ≤ 0.25 |
| QPRV | ≤ 0.25 |
| VPCP | ≤ 0.25 |
| NSAP | ≤ 0.25 |
| SVSN | 6.15 |
| TMPE | ≤ 0.25 |
| DWSQ | ≤ 0.25 |
| INYK | ≤ 0.25 |
| KEWW | ≤ 0.25 |
| QHID | ≤ 0.25 |

| Variant | enrichment ratio |
| --- | --- |
| SETY | 15 |
| WEEG | ≤ 0.25 |
| EFRA | ≤ 0.25 |
| WLAR | ≤ 0.25 |
| ETYD | ≤ 0.25 |
| YTEI | ≤ 0.25 |
| QRFL | ≤ 0.25 |
| PAEM | ≤ 0.25 |
| GLMP | ≤ 0.25 |
| TGEF | ≤ 0.25 |
| GHWG | ≤ 0.25 |
| QGIW | ≤ 0.25 |
| AITP | ≤ 0.25 |
| HNRF | ≤ 0.25 |
| QKHL | ≤ 0.25 |
| IKPE | ≤ 0.25 |
| FHFW | ≤ 0.25 |
| DGYN | ≤ 0.25 |
| LFGE | ≤ 0.25 |
| RMGA | ≤ 0.25 |
| KKQF | ≤ 0.25 |

| Variant | enrichment ratio |
| --- | --- |
| GNSY | 0.945 |
| DYAK | ≤ 0.25 |
| PKFV | ≤ 0.25 |
| ISAD | ≤ 0.25 |
| AMSI | 5.07 |
| NHPK | ≤ 0.25 |
| DIMM | ≤ 0.25 |
| PWLD | ≤ 0.25 |
| MVSQ | ≤ 0.25 |
| DIHR | ≤ 0.25 |
| SIGV | 8.2 |
| VDTN | ≤ 0.25 |
| SSRL | ≤ 0.25 |
| ERNV | ≤ 0.25 |
| NEPD | ≤ 0.25 |
| LSRP | ≤ 0.25 |
| RSAN | ≤ 0.25 |
| RRWS | ≤ 0.25 |
| YFMM | ≤ 0.25 |
| VPTQ | ≤ 0.25 |
| NNQC | ≤ 0.25 |

| Variant | enrichment ratio |
| --- | --- |
| QNIT | ≤ 0.25 |
| VMDW | ≤ 0.25 |
| QKEH | 3.23 |
| QKSA | ≤ 0.25 |
| SYQW | ≤ 0.25 |
| HHQG | ≤ 0.25 |
| HEYK | ≤ 0.25 |
| AKTV | 5.31 |
| VWLI | ≤ 0.25 |
| FGRD | ≤ 0.25 |
| VCDS | ≤ 0.25 |
| VRKH | ≤ 0.25 |
| KMTH | ≤ 0.25 |
| PNEF | ≤ 0.25 |
| PFQM | ≤ 0.25 |
| ILAK | ≤ 0.25 |
| LCNT | ≤ 0.25 |
| QLVG | ≤ 0.25 |
| SVHF | ≤ 0.25 |
| SGDY | ≤ 0.25 |
| SDHA | ≤ 0.25 |
